{"source": "paper PMC6212790", "note": "Some of the results follow. At the low end of the ranking, values are background and their order means little.", "data": [{"molecular_target": "T1, GST-Rok-C97-191 (UniProt O34857)", "T1 sequence": "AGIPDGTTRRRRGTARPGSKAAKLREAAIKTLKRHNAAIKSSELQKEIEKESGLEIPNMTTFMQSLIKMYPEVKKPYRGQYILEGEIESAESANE", "test": "protein binding microarray;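 further: rank score from −0.5 (least bound) to 0.5 (best bound)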", "conditions": "Rok is a gene silencer of Bacillus subtilis; high values mean tight binding; most listed sequences are background and not binding sites; double strand, one strand shown", "units": {"binding signal": "E-score"}, "values": [{"sequence": "GCACAACA", "binding signal": -0.00183}, {"sequence": "ATTATCAG", "binding signal": 0.276}, {"sequence": "GTCCGTTA", "binding signal": -0.204}, {"sequence": "TACCGACA", "binding signal": 0.084}, {"sequence": "AGTCCTAC", "binding signal": -0.0776}, {"sequence": "GATAAGAC", "binding signal": 0.14}, {"sequence": "TACCTATA", "binding signal": 0.375}, {"sequence": "CACCATCC", "binding signal": -0.174}, {"sequence": "ATAAAGCC", "binding signal": -0.0227}, {"sequence": "CGAATACC", "binding signal": 0.175}, {"sequence": "CCGGGTCC", "binding signal": -0.172}, {"sequence": "CGCATAGA", "binding signal": -0.163}, {"sequence": "CTTTTACC", "binding signal": 0.149}, {"sequence": "AATAATCG", "binding signal": 0.061}, {"sequence": "GTTCAGGA", "binding signal": -0.0368}, {"sequence": "CTACCGGC", "binding signal": 0.0318}, {"sequence": "CTAACGAC", "binding signal": 0.00996}, {"sequence": "CTGGTCCC", "binding signal": -0.117}, {"sequence": "ACTAAGTA", "binding signal": 0.319}, {"sequence": "AAGTGTTA", "binding signal": 0.21}, {"sequence": "TCGCAGAA", "binding signal": -0.0616}, {"sequence": "GGCCTTGA", "binding signal": -0.262}, {"sequence": "AGGCTGAA", "binding signal": -0.136}, {"sequence": "CGAATAGC", "binding signal": -0.266}, {"sequence": "GGTTGGGA", "binding signal": 0.103}, {"sequence": "AGATACGG", "binding signal": -0.0102}, {"sequence": "AGGACCCG", "binding signal": -0.0941}, {"sequence": "AGCCGCAT", "binding signal": -0.0834}, {"sequence": "AATCGTCC", "binding signal": -0.11}, {"sequence": "ACGTCTCT", "binding signal": -0.0426}, {"sequence": "AAGCAAAT", "binding signal": 0.0876}, {"sequence": "ACGCTCGA", "binding signal": -0.18}, {"sequence": "CAAAGTAG", "binding signal": 0.194}, {"sequence": "CATTTACA", "binding signal": 0.277}, {"sequence": "CACTCGGC", "binding signal": -0.164}, {"sequence": "ATCGACAC", "binding signal": -0.0117}, {"sequence": "GACCCATC", "binding signal": -0.114}, {"sequence": "TCCCTAAA", "binding signal": -0.186}, {"sequence": "GCGAATAA", "binding signal": -0.031}, {"sequence": "ACTTGACC", "binding signal": -0.0191}, {"sequence": "TCGAGAAA", "binding signal": 0.0918}, {"sequence": "CCTTTATC", "binding signal": -0.0868}, {"sequence": "ACTGAGTG", "binding signal": 0.0937}, {"sequence": "GAGTCTGA", "binding signal": -0.0859}, {"sequence": "GGACAAGA", "binding signal": -0.148}, {"sequence": "TAGTATCA", "binding signal": 0.174}, {"sequence": "GGTAAATA", "binding signal": 0.318}, {"sequence": "GACCCCAA", "binding signal": -0.283}, {"sequence": "CTGCAGAA", "binding signal": -0.138}, {"sequence": "ACGGCACA", "binding signal": 0.076}, {"sequence": "ACTAATCC", "binding signal": 0.0831}, {"sequence": "CACCCTCA", "binding signal": -0.127}, {"sequence": "CGACACAA", "binding signal": -0.127}, {"sequence": "AATAAATC", "binding signal": 0.137}, {"sequence": "AAAAGTCG", "binding signal": -0.0455}, {"sequence": "CTCACTTA", "binding signal": -0.0686}, {"sequence": "ATTAAGGC", "binding signal": -0.153}, {"sequence": "GTGAAGAA", "binding signal": 0.0267}, {"sequence": "TTCGAGAA", "binding signal": 0.0724}, {"sequence": "CATAAAGA", "binding signal": -0.0708}, {"sequence": "AGGATATA", "binding signal": 0.156}, {"sequence": "GATGAAGC", "binding signal": 0.0229}, {"sequence": "GCCATAAC", "binding signal": -0.235}, {"sequence": "AAGGAATG", "binding signal": -0.0341}, {"sequence": "CTCGCATA", "binding signal": 0.00224}, {"sequence": "CATGAAGG", "binding signal": -0.11}, {"sequence": "CTAGCCAG", "binding signal": -0.131}, {"sequence": "CCGCTGGC", "binding signal": -0.2}, {"sequence": "ACGCAAAC", "binding signal": 0.103}, {"sequence": "ATTGTTTA", "binding signal": 0.0735}, {"sequence": "AGCTACGA", "binding signal": 0.191}, {"sequence": "AACCGGTG", "binding signal": -0.243}, {"sequence": "ATCCCCTC", "binding signal": -0.148}, {"sequence": "GAACCTTC", "binding signal": -0.173}, {"sequence": "AGCTAGTG", "binding signal": 0.253}, {"sequence": "CCAGGCCA", "binding signal": -0.168}, {"sequence": "ACATCGAT", "binding signal": 0.215}, {"sequence": "AATTGGTA", "binding signal": 0.331}, {"sequence": "CGCCGACG", "binding signal": -0.0857}, {"sequence": "CTTTGCTA", "binding signal": 0.223}, {"sequence": "AAGGCTGC", "binding signal": -0.111}, {"sequence": "AATTACGT", "binding signal": 0.273}, {"sequence": "CGGTTGAC", "binding signal": -0.17}, {"sequence": "GGTCTGCA", "binding signal": -0.0588}, {"sequence": "AATCCGCC", "binding signal": -0.126}, {"sequence": "CAGTTTCC", "binding signal": -0.0842}, {"sequence": "CAACCTGG", "binding signal": -0.182}, {"sequence": "GGGGGGAC", "binding signal": -0.218}, {"sequence": "CAATAGTG", "binding signal": 0.236}, {"sequence": "ACTGAACA", "binding signal": 0.141}, {"sequence": "AGTTATCA", "binding signal": 0.253}, {"sequence": "GACTAATA", "binding signal": 0.29}, {"sequence": "ACCATGCC", "binding signal": -0.0186}, {"sequence": "CTACTGTA", "binding signal": 0.384}, {"sequence": "ATACTTCG", "binding signal": 0.0591}, {"sequence": "AAACATCC", "binding signal": 0.1}, {"sequence": "AATAGCCG", "binding signal": 0.0427}, {"sequence": "ACCTCCTA", "binding signal": 0.124}, {"sequence": "CCGGGACA", "binding signal": -0.169}, {"sequence": "CGAGGTAC", "binding signal": -0.0906}, {"sequence": "CCACAACC", "binding signal": -0.186}, {"sequence": "CCGCTATA", "binding signal": 0.207}, {"sequence": "ACCGTAGA", "binding signal": 0.0796}, {"sequence": "GGTTGCTA", "binding signal": 0.16}, {"sequence": "ATGAGTGA", "binding signal": -0.0491}, {"sequence": "ATGTCGTA", "binding signal": 0.19}, {"sequence": "CGCGTATC", "binding signal": -0.00618}, {"sequence": "ACTACTGC", "binding signal": 0.113}, {"sequence": "CTGTGGCC", "binding signal": -0.18}, {"sequence": "CGGAGTAC", "binding signal": 0.0635}, {"sequence": "AGGTACCT", "binding signal": 0.322}, {"sequence": "CATGCCTA", "binding signal": -0.0308}, {"sequence": "GAGTGTCC", "binding signal": -0.137}, {"sequence": "AACTGACC", "binding signal": 0.128}, {"sequence": "CGATCGAA", "binding signal": 0.239}, {"sequence": "AGCTTGAT", "binding signal": -0.0768}, {"sequence": "GTGAGCAA", "binding signal": -0.0796}, {"sequence": "CTATCCGC", "binding signal": 0.0493}, {"sequence": "AGCCAGTC", "binding signal": -0.118}, {"sequence": "AAAAAAAT", "binding signal": 0.195}, {"sequence": "CTGGGATA", "binding signal": 0.078}, {"sequence": "CGCCGAAG", "binding signal": -0.269}, {"sequence": "TATGTCGA", "binding signal": 0.226}, {"sequence": "AGCCTGTA", "binding signal": -0.157}, {"sequence": "TGGAGAAA", "binding signal": 0.104}, {"sequence": "CCATATGC", "binding signal": -0.0256}, {"sequence": "ACCGTAAT", "binding signal": 0.157}, {"sequence": "CTTGGAAC", "binding signal": -0.103}, {"sequence": "ATTGCGGC", "binding signal": -0.0591}, {"sequence": "CCGTTACG", "binding signal": -0.106}, {"sequence": "GCGACGCA", "binding signal": 0.0168}, {"sequence": "AATTTCGT", "binding signal": 0.145}, {"sequence": "AGTATATC", "binding signal": 0.261}, {"sequence": "GAGAAACA", "binding signal": -0.00871}, {"sequence": "CAAACTTC", "binding signal": 0.0153}, {"sequence": "TCGGAAAA", "binding signal": 0.0434}, {"sequence": "TCGTCCCA", "binding signal": -0.222}, {"sequence": "AATGGGAC", "binding signal": -0.164}, {"sequence": "AAGGAATT", "binding signal": 0.0952}, {"sequence": "GACTTTAA", "binding signal": -0.212}, {"sequence": "ATGCCCAA", "binding signal": -0.153}, {"sequence": "ATGACGTA", "binding signal": -0.0485}, {"sequence": "GTCAATAA", "binding signal": 0.0619}, {"sequence": "CTCCAATA", "binding signal": -0.143}, {"sequence": "AATATCGC", "binding signal": 0.159}, {"sequence": "AACGACAC", "binding signal": 0.105}, {"sequence": "CACGCGAA", "binding signal": -0.17}, {"sequence": "AGTCCATC", "binding signal": -0.159}, {"sequence": "ACTAAGAG", "binding signal": 0.171}, {"sequence": "AGTCACTC", "binding signal": -0.0511}, {"sequence": "GACGACCA", "binding signal": -0.131}, {"sequence": "AGGTTTCG", "binding signal": -0.253}, {"sequence": "GGTGAAGA", "binding signal": -0.0416}, {"sequence": "AGCCCCCG", "binding signal": -0.305}, {"sequence": "TAGCGTAA", "binding signal": 0.0752}, {"sequence": "GTCCTCCA", "binding signal": -0.278}, {"sequence": "ATAACGTA", "binding signal": 0.143}, {"sequence": "CACCACAC", "binding signal": -0.0459}, {"sequence": "TCCCATCA", "binding signal": 0.0869}, {"sequence": "TGAATTAA", "binding signal": 0.0945}, {"sequence": "CCCAACGC", "binding signal": -0.254}, {"sequence": "ACTATCTA", "binding signal": 0.364}, {"sequence": "GAAGGACA", "binding signal": -0.106}, {"sequence": "GTGCGCCA", "binding signal": -0.181}, {"sequence": "CAGGGCGG", "binding signal": -0.234}, {"sequence": "AGGGATTA", "binding signal": -0.0766}, {"sequence": "GATGTCTA", "binding signal": 0.0496}, {"sequence": "GCCCAAAC", "binding signal": -0.284}, {"sequence": "CGATGATA", "binding signal": 0.153}, {"sequence": "CGAACACG", "binding signal": -0.101}, {"sequence": "GATAAGGC", "binding signal": -0.0888}, {"sequence": "ATTTAGTC", "binding signal": 0.064}]}]}
